The other results are listed elsewhere or left out.
Columns and labels:
[1] = target: Neu5Gc(a2-8)Neu5Gc(a2-6)Gal(b1-4)GlcNAc; assay: glycan array binding signal (z-score within array); higher = stronger binding; conditions: glycan notation: IUPAC condensed, linker removed
Procedure, shortened: (§1)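 Glycan array binding is given as a within-array Z-score, which can be read as non-binding when negative. The arrays, 3228 of them, came from the Consortium for Functional Glycomics database and were retained only where the protein sequence was available. Z-scores were averaged across arrays of the same protein sequence at different concentrations or buffers and across linkers.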

[2] = target: Neu5Gc(b2-6)Gal(b1-4)GlcNAc; assay: as above; conditions: glycan notation: IUPAC condensed, linker removed
Procedure, shortened: as §1

B1: PX9961T-pdi-555-33-555 (Parabacteroides distasonis) (protein)
chain: FDEETAFQSPTLVYVNTVASLYNNMFKIMGNDRHVYDLNTFSSDEAMLPCRIGDWEDGGLWQNIFLHRWGTMNDLTKNSWDFLYEQIGKCNQSVDKLQAFAEEQPDVEYFKVYLEEVRAVRAFFYYELLDLFARVPLVTSSTTPMSEVKQSERSVVFNFVRSELEEALPYLSDNRSNQKGEYYGRITKPVAYMILAKLALNAEVYADDNWTDGNRPAGKNIKFTVDGKEMNAWEATIAYVDKLEALGYKLQGNFSENFAVANETSVENIFTVPMDPVAYPDAKDYNLVRTRHYDHATAYGQSGWNGSCATVKAMNVFKFGTADEDPRCKLTYFTGEVTGPDGKTIYTEWDGQKVPLKYEPNAPKVYMDASDGLLVKTAGARMAKYEFDQNAQDGGNLHGNDCVIFRFADALLMKAEAKIRLGQNGDDEVNQVRNRVGAKPLQNVTLDTLLDERMLELAWEGVRRQDLIRFGKFTEATVDRYVGVKHFASSLDYQEDKTGYTTVFSIYADILSLNPNLTQNPGY
glycan array binding signal (z-score) [1]: 0.075 | glycan array binding signal (z-score) [2]: -0.307
